# Reference: article PMC5700166
# Only a part is listed here, and it is no random draw. The list includes weakly bound sequences.
# Molecular target: T1, GST-Ap-NF-kB RHD (UniProt A0A913YAJ5)
# T1 sequence: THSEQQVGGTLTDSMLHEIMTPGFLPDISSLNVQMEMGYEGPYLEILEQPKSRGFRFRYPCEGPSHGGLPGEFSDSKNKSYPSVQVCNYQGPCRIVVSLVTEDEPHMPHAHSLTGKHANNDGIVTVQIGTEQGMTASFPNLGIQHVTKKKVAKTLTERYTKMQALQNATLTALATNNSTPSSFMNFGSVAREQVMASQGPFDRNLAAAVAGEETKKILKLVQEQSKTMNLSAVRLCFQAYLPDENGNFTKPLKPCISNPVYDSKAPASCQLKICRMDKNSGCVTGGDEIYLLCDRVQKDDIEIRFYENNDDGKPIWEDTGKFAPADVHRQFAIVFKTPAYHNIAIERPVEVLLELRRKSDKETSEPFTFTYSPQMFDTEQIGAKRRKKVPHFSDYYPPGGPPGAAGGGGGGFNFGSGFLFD
# Test: protein-binding microarray (PBM)
# Details: PBM: ~300 nM protein, 6 mM HEPES pH 7.8, 80 mM KCl, 0.5 mM EDTA, 0.5 mM EGTA, 6% glycerol, 35 ng/ul poly-dIdC, 1% milk, 1 h, room temperature; high values mean tight binding; double strand, one strand shown
row,Sequence,binding signal [z-score]
1,CCGATTAACATCAACCATTCCCCTGATGTTAATCGGGTCTTGATTCGCTTGACGCTGCTG,5.66
2,CCGATTAACATCAGGGGAGTCCATGATGTTAATCGGGTCTTGATTCGCTTGACGCTGCTG,6.16
3,CCGATTAACATCAAATCTTCCCCTGATGTTAATCGGGTCTTGATTCGCTTGACGCTGCTG,6.29
4,CCGATTAACATCAGGGACAAAAATGATGTTAATCGGGTCTTGATTCGCTTGACGCTGCTG,2
5,CCGATTAACATCAGGAGAGCCCCTGATGTTAATCGGGTCTTGATTCGCTTGACGCTGCTG,3.65
6,CCGATTAACATCAAAATCCCCCCTGATGTTAATCGGGTCTTGATTCGCTTGACGCTGCTG,10.4
7,CCGATTAACATCATCAGGGGGGATGATGTTAATCGGGTCTTGATTCGCTTGACGCTGCTG,4.58
8,CCGATTAACATCAATGGGATTCCTGATGTTAATCGGGTCTTGATTCGCTTGACGCTGCTG,1.54
9,CCGATTAACATCAGAGTCCCCCCTGATGTTAATCGGGTCTTGATTCGCTTGACGCTGCTG,5.97
10,CCGATTAACATCACAGTTCCCCCTGATGTTAATCGGGTCTTGATTCGCTTGACGCTGCTG,6.94
11,CCGATTAACATCACGTAAGGGATTGATGTTAATCGGGTCTTGATTCGCTTGACGCTGCTG,0.96
12,CCGATTAACATCAGGGGATGAACTGATGTTAATCGGGTCTTGATTCGCTTGACGCTGCTG,2.44
13,CCGATTAACATCAAAAAATACCCTGATGTTAATCGGGTCTTGATTCGCTTGACGCTGCTG,6.17
14,CCGATTAACATCAGGGATATACCTGATGTTAATCGGGTCTTGATTCGCTTGACGCTGCTG,3.17
15,CCGATTAACATCAGAATTCCCGCTGATGTTAATCGGGTCTTGATTCGCTTGACGCTGCTG,3.59
16,CCGATTAACATCAGGGAAAAGGATGATGTTAATCGGGTCTTGATTCGCTTGACGCTGCTG,1.79
17,CCGATTAACATCAGGGAGTGCCCTGATGTTAATCGGGTCTTGATTCGCTTGACGCTGCTG,2.83
18,CCGATTAACATCAGGGGGAAATATGATGTTAATCGGGTCTTGATTCGCTTGACGCTGCTG,7.3
19,CCGATTAACATCAAATTGGGAAATGATGTTAATCGGGTCTTGATTCGCTTGACGCTGCTG,0.485
20,CCGATTAACATCACCTTTCCCCCTGATGTTAATCGGGTCTTGATTCGCTTGACGCTGCTG,6.53

row,Sequence,binding signal [z-score]
1,CCGATTAACATCAGGGATTCACCTGATGTTAATCGGGTCTTGATTCGCTTGACGCTGCTG,5.22
2,CCGATTAACATCAAAATTCCCGTTGATGTTAATCGGGTCTTGATTCGCTTGACGCTGCTG,3.98
3,CCGATTAACATCAGCCCCCCGTCTGATGTTAATCGGGTCTTGATTCGCTTGACGCTGCTG,3.16
4,CCGATTAACATCAGGGGGAACGATGATGTTAATCGGGTCTTGATTCGCTTGACGCTGCTG,5.18
5,CCGATTAACATCACCAATTTCCCTGATGTTAATCGGGTCTTGATTCGCTTGACGCTGCTG,3.3
6,CCGATTAACATCAACTGGGAAAATGATGTTAATCGGGTCTTGATTCGCTTGACGCTGCTG,1.66
7,CCGATTAACATCAAATTGCCCCCTGATGTTAATCGGGTCTTGATTCGCTTGACGCTGCTG,4.13
8,CCGATTAACATCAGGGGGATCCATGATGTTAATCGGGTCTTGATTCGCTTGACGCTGCTG,7.42
9,CCGATTAACATCAGGCACCCCCCTGATGTTAATCGGGTCTTGATTCGCTTGACGCTGCTG,5.14
10,CCGATTAACATCAAAACCCCCCCTGATGTTAATCGGGTCTTGATTCGCTTGACGCTGCTG,8.72
11,CCGATTAACATCAGGAGTCTCCCTGATGTTAATCGGGTCTTGATTCGCTTGACGCTGCTG,1.69
12,CCGATTAACATCAAATTCCCATGTGATGTTAATCGGGTCTTGATTCGCTTGACGCTGCTG,2.41
13,CCGATTAACATCAGGATTTTACCTGATGTTAATCGGGTCTTGATTCGCTTGACGCTGCTG,0.677
14,CCGATTAACATCACTTGGGAAACTGATGTTAATCGGGTCTTGATTCGCTTGACGCTGCTG,1.38
15,CCGATTAACATCAACAGGGAAAATGATGTTAATCGGGTCTTGATTCGCTTGACGCTGCTG,3.23
16,CCGATTAACATCATGGAGGGAGGTGATGTTAATCGGGTCTTGATTCGCTTGACGCTGCTG,1.29
17,CCGATTAACATCAAAAAGCCCCGTGATGTTAATCGGGTCTTGATTCGCTTGACGCTGCTG,6.52
18,CCGATTAACATCACGTACTCCCCTGATGTTAATCGGGTCTTGATTCGCTTGACGCTGCTG,4.07
19,CCGATTAACATCACATGGGAAACTGATGTTAATCGGGTCTTGATTCGCTTGACGCTGCTG,1.24

# Molecular target: T2, GST-Co-NF-kB (UniProt F1ARL5)
# T2 sequence: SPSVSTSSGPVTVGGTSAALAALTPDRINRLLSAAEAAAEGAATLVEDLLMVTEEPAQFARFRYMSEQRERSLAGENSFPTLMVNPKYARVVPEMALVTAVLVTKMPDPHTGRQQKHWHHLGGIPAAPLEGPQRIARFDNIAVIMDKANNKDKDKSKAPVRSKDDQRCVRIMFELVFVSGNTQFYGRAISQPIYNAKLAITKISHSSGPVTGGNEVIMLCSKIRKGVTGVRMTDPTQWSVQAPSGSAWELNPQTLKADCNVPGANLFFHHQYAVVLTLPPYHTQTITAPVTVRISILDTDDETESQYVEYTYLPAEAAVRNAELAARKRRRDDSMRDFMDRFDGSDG
# Test: protein-binding microarray (PBM)
# Details: PBM: ~300 nM protein, 6 mM HEPES pH 7.8, 80 mM KCl, 0.5 mM EDTA, 0.5 mM EGTA, 6% glycerol, 35 ng/ul poly-dIdC, 1% milk, 1 h, room temperature; Ap Aiptasia and Nv Nematostella (sea anemones) / Co Capsaspora / Aq Amphimedon (sponge) / Dm Drosophila / Hu human; RHD is the Rel homology domain; high values mean tight binding; most listed sequences are background and not binding sites; double strand, one strand shown
row,Sequence,binding signal [z-score]
1,CCGATTAACATCAAATCTTCCCCTGATGTTAATCGGGTCTTGATTCGCTTGACGCTGCTG,9.84
2,CCGATTAACATCAGGGACAAAAATGATGTTAATCGGGTCTTGATTCGCTTGACGCTGCTG,2.39
3,CCGATTAACATCAGGAGAGCCCCTGATGTTAATCGGGTCTTGATTCGCTTGACGCTGCTG,0.578
4,CCGATTAACATCATCAGGGGGGATGATGTTAATCGGGTCTTGATTCGCTTGACGCTGCTG,6.21
5,CCGATTAACATCAATGGGATTCCTGATGTTAATCGGGTCTTGATTCGCTTGACGCTGCTG,0.943
6,CCGATTAACATCAGAGTCCCCCCTGATGTTAATCGGGTCTTGATTCGCTTGACGCTGCTG,7.33
7,CCGATTAACATCACAGTTCCCCCTGATGTTAATCGGGTCTTGATTCGCTTGACGCTGCTG,8.18
8,CCGATTAACATCACGTAAGGGATTGATGTTAATCGGGTCTTGATTCGCTTGACGCTGCTG,0.529
9,CCGATTAACATCAGGGGATGAACTGATGTTAATCGGGTCTTGATTCGCTTGACGCTGCTG,3.23
10,CCGATTAACATCAGGGAGTGCCCTGATGTTAATCGGGTCTTGATTCGCTTGACGCTGCTG,0.582
11,CCGATTAACATCAGGGGGAAATATGATGTTAATCGGGTCTTGATTCGCTTGACGCTGCTG,11.1
12,CCGATTAACATCAAATTGGGAAATGATGTTAATCGGGTCTTGATTCGCTTGACGCTGCTG,1.89
13,CCGATTAACATCACCTTTCCCCCTGATGTTAATCGGGTCTTGATTCGCTTGACGCTGCTG,9.42
14,CCGATTAACATCAAAATTCCCGTTGATGTTAATCGGGTCTTGATTCGCTTGACGCTGCTG,4.03
15,CCGATTAACATCAGCCCCCCGTCTGATGTTAATCGGGTCTTGATTCGCTTGACGCTGCTG,3
16,CCGATTAACATCAGGCACCCCCCTGATGTTAATCGGGTCTTGATTCGCTTGACGCTGCTG,2.79
17,CCGATTAACATCAAAACCCCCCCTGATGTTAATCGGGTCTTGATTCGCTTGACGCTGCTG,6.13
18,CCGATTAACATCAGGAGTCTCCCTGATGTTAATCGGGTCTTGATTCGCTTGACGCTGCTG,2.17
19,CCGATTAACATCAGGATTTTACCTGATGTTAATCGGGTCTTGATTCGCTTGACGCTGCTG,-0.257
20,CCGATTAACATCAACAGGGAAAATGATGTTAATCGGGTCTTGATTCGCTTGACGCTGCTG,2.91
21,CCGATTAACATCAAAAAGCCCCGTGATGTTAATCGGGTCTTGATTCGCTTGACGCTGCTG,1.43
22,CCGATTAACATCACGTACTCCCCTGATGTTAATCGGGTCTTGATTCGCTTGACGCTGCTG,2.99
23,CCGATTAACATCACATGGGAAACTGATGTTAATCGGGTCTTGATTCGCTTGACGCTGCTG,2.48
